Laboratory results published in patent US6703362B1, “Random peptides that bind to gastro-intestinal tract (GIT) transport receptors and related methods” (Cytogen Corporation, priority 1997, dated 2004).
Part of at least one peptide drawing is inferred or uncertain, most often the ends. Peptide text beside a SMILES is read from it. * marks the point of attachment. Dansyl = CN(C)c1cccc2c(S(=O)(=O)*)cccc12

System: P100 membrane fractions derived from Caco-2 cells
Experiment: Dansylated peptide ELISA: relative binding of PAX2 and HAX42 peptides to P100 (ratio to ZElan021)
Details: HAX42 peptides, ratio to ZElan021 = 1.00
Experimental: The peptides and proteins were analyzed by a dansylated peptide ELISA method in which 96 well plates were coated overnight at 4° C. with 100 μl/well coating protein (normally 100 μg/ml P100 membrane fraction) in 0.05M carbonate buffer pH9.6. Nonspecific binding was blocked using 200 μl/well, 2% Marvel/PBS for 2 hours at 37° C. prior to incubation with dansylated peptides. The plates were washed three times with PBS/0.05% Tween 20 and after each subsequent incubation step. […] A buffer blank control was included to ensure that background binding to plastic was not due to the antibodies used in the assay system. […] The plates were then incubated with an anti-mouse X-HRP conjugated antibody (Southern Biotech 1060-05) at a 1:10,000 dilution in blocking solution, 100 μl/well for 1 hour at room temperature. Plates were developed using 75 μl/well Bionostics TMB substrate and incubated for approximately 10 minutes. The developing reaction was stopped using Bionostics Red Stop solution (25 μl/well), and the optical density of the plates was read at 650nm.

SMILES | Binding value at 25 μg/ml (first 25 μg/ml column) | Binding value at 25 μg/ml (second 25 μg/ml column) | Binding value at 25 μg/ml (third 25 μg/ml column)
C[C@@H](O)[C@H](NC(=O)[C@H](CO)NC(=O)[C@H](CC(N)=O)NC(=O)CNC(=O)[C@H](CC(N)=O)NC(=O)CNC(=O)[C@H](CS)NC(=O)[C@H](CS)NC(=O)[C@H](CC(N)=O)NC(=O)[C@@H](N)CCCCNS(=O)(=O)c1cccc2c(N(C)C)cccc12)C(=O)NCC(N)=O [ZElan093] (H-K(Dansyl)NCCGNGNSTG-NH2) | 1.88 | 1.37 | 1.33
CC(C)C[C@H](NC(=O)[C@H](C)NC(=O)[C@H](Cc1c[nH]cn1)NC(=O)[C@H](CC(=O)O)NC(=O)[C@H](CO)NC(=O)[C@@H](N)CCCCNS(=O)(=O)c1cccc2c(N(C)C)cccc12)C(=O)NCC(=O)N[C@H](C(=O)N[C@@H](CC(N)=O)C(=O)N[C@@H](CC(C)C)C(=O)N[C@@H](CCCNC(=N)N)C(=O)N[C@@H](CO)C(=O)N[C@@H](CC(=O)O)C(=O)N[C@@H](CC(N)=O)C(=O)N[C@@H](C)C(=O)N[C@@H](CCCCN)C(N)=O)[C@@H](C)O [ZElan089] (H-K(Dansyl)SDHALGTNLRSDNAK-NH2) | 0.55 | 0.44 | 0.49
CN(C)c1cccc2c(S(=O)(=O)NCCCC[C@H](N)C(=O)N3CCC[C@H]3C(=O)NCC(=O)N[C@@H](CC(=O)O)C(=O)N[C@@H](Cc3ccc(O)cc3)C(=O)N[C@@H](CC(N)=O)C(=O)N[C@@H](CS)C(=O)N[C@@H](CS)C(=O)NCC(=O)N[C@@H](CC(N)=O)C(=O)NCC(N)=O)cccc12 [ZElan092] (H-K(Dansyl)PGDYNCCGNG-NH2) | 1.41 | 1.90 | 0.91
C[C@H](NC(=O)[C@H](CC(N)=O)NC(=O)[C@H](CC(=O)O)NC(=O)[C@H](CO)NC(=O)[C@@H](N)CCCCNS(=O)(=O)c1cccc2c(N(C)C)cccc12)C(=O)N[C@@H](CCCCN)C(=O)N[C@@H](CCC(=O)O)C(=O)N1CCC[C@H]1C(=O)NCC(=O)N[C@@H](CC(=O)O)C(=O)N[C@@H](Cc1ccc(O)cc1)C(=O)N[C@@H](CC(N)=O)C(=O)N[C@@H](CS)C(=O)N[C@@H](CS)C(=O)NCC(=O)N[C@@H](CC(N)=O)C(=O)NCC(=O)N[C@@H](CC(N)=O)C(=O)N[C@@H](CO)C(=O)N[C@H](C(=O)NCC(N)=O)[C@@H](C)O [ZElan088] (H-K(Dansyl)SDNAKEPGDYNCCGNGNSTG-NH2) | 2.21 | 1.41 | 1.63
CC(C)C[C@H](NC(=O)[C@H](C)NC(=O)[C@H](Cc1c[nH]cn1)NC(=O)[C@H](CC(=O)O)NC(=O)[C@H](CO)NC(=O)[C@@H](N)CCCCNS(=O)(=O)c1cccc2c(N(C)C)cccc12)C(=O)NCC(=O)N[C@H](C(=O)N[C@@H](CC(N)=O)C(=O)N[C@@H](CC(C)C)C(=O)N[C@@H](CCCNC(=N)N)C(=O)N[C@@H](CO)C(=O)N[C@@H](CC(=O)O)C(=O)N[C@@H](CC(N)=O)C(=O)N[C@@H](C)C(=O)N[C@@H](CCCCN)C(=O)N[C@@H](CCC(=O)O)C(=O)N1CCC[C@H]1C(=O)NCC(=O)N[C@@H](CC(=O)O)C(=O)N[C@@H](Cc1ccc(O)cc1)C(N)=O)[C@@H](C)O [ZElan087] (H-K(Dansyl)SDHALGTNLRSDNAKEPGDY-NH2) | 0.46 | 0.44 | 
C[C@@H](O)[C@H](NC(=O)[C@H](CO)NC(=O)[C@H](CC(N)=O)NC(=O)CNC(=O)[C@H](CC(N)=O)NC(=O)CNC(=O)[C@H](CS)NC(=O)[C@H](CS)NC(=O)[C@H](CC(N)=O)NC(=O)[C@H](Cc1ccc(O)cc1)NC(=O)[C@H](CC(=O)O)NC(=O)CNC(=O)[C@@H]1CCCN1C(=O)[C@@H](N)CCCCNS(=O)(=O)c1cccc2c(N(C)C)cccc12)C(=O)NCC(N)=O [ZElan091] (H-K(Dansyl)PGDYNCCGNGNSTG-NH2) | 2.02 | 1.37 | 1.20
